# Assay results reported in the supplement of paper PMC8728848.
# This is one part of the list.
# Experiments:
# Test in all cases: glycan array binding signal (z-score within array); higher = stronger binding
# Conditions in all cases: glycan notation: IUPAC condensed, linker removed
# [1] = target: Gal(b1-4)GalNAc(b1-3)[Fuc(a1-2)]Gal(b1-4)GlcNAc
# Procedure, shortened: (§1)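 The Consortium for Functional Glycomics database supplied 3228 glycan arrays, of which those lacking an available protein sequence were dropped. The binding signal, a within-array Z-score, was averaged across arrays of the same protein sequence and across linkers. Negative scores can be read as non-binding.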
# Gal(b1-4)Glc = target: Gal(b1-4)Glc
# Procedure, shortened: as §1
# Gal(b1-4)Glc6S = target: Gal(b1-4)Glc6S
# Procedure, shortened: as §1
# Gal(b1-4)GlcNAc = target: Gal(b1-4)GlcNAc
# Procedure, shortened: as §1
# [2] = target: Gal(b1-4)GlcNAc(a1-6)Gal(b1-4)GlcNAc
# Procedure, shortened: as §1
# Gal(b1-4)GlcNAc(b1-2)Man = target: Gal(b1-4)GlcNAc(b1-2)Man
# Procedure, shortened: as §1
# [3] = target: Gal(b1-4)GlcNAc(b1-2)Man(a1-3)Man(b1-4)GlcNAc(b1-4)GlcNAc
# Procedure, shortened: as §1
# [4] = target: Gal(b1-4)GlcNAc(b1-2)Man(a1-3)[Gal(b1-4)GlcNAc(b1-2)Man(a1-6)]Man(b1-4)GlcNAc(b1-4)GlcNAc
# Procedure, shortened: as §1
# [5] = target: Gal(b1-4)GlcNAc(b1-2)Man(a1-3)[Gal(b1-4)GlcNAc(b1-2)Man(a1-6)]Man(b1-4)GlcNAc(b1-4)[Fuc(a1-6)]GlcNAc
# Procedure, shortened: as §1
# [6] = target: Gal(b1-4)GlcNAc(b1-2)Man(a1-3)[Gal(b1-4)GlcNAc(b1-2)][GlcNAc(b1-4)]Man(b1-4)GlcNAc(b1-4)GlcNAc
# Procedure, shortened: as §1
# [7] = target: Gal(b1-4)GlcNAc(b1-2)Man(a1-3)[GlcNAc(b1-2)Man(a1-6)]Man(b1-4)GlcNAc(b1-4)GlcNAc
# Procedure, shortened: as §1
# [8] = target: Gal(b1-4)GlcNAc(b1-2)Man(a1-3)[Man(a1-6)]Man(b1-4)GlcNAc(b1-4)GlcNAc
# Procedure, shortened: as §1
# [9] = target: Gal(b1-4)GlcNAc(b1-2)Man(a1-6)Man(b1-4)GlcNAc(b1-4)GlcNAc
# Procedure, shortened: as §1
# [10] = target: Gal(b1-4)GlcNAc(b1-2)Man(a1-6)[GlcNAc(b1-2)Man(a1-3)]Man(b1-4)GlcNAc(b1-4)GlcNAc
# Procedure, shortened: as §1
# [11] = target: Gal(b1-4)GlcNAc(b1-2)Man(a1-6)[Man(a1-3)]Man(b1-4)GlcNAc(b1-4)GlcNAc
# Procedure, shortened: as §1
# [12] = target: Gal(b1-4)GlcNAc(b1-2)[Gal(b1-4)GlcNAc(b1-4)]Man(a1-3)[Gal(b1-4)GlcNAc(b1-2)Man(a1-6)]Man(b1-4)GlcNAc(b1-4)GlcNAc
# Procedure, shortened: as §1
# [13] = target: Gal(b1-4)GlcNAc(b1-2)[Gal(b1-4)GlcNAc(b1-4)]Man(a1-3)[Gal(b1-4)GlcNAc(b1-2)[Gal(b1-4)GlcNAc(b1-6)]Man(a1-6)]Man(b1-4)GlcNAc(b1-4)GlcNAc
# Procedure, shortened: as §1
# [14] = target: Gal(b1-4)GlcNAc(b1-2)[Gal(b1-4)GlcNAc(b1-4)]Man(a1-3)[GlcNAc(b1-4)][Gal(b1-4)GlcNAc(b1-2)Man(a1-6)]Man(b1-4)GlcNAc(b1-4)GlcNAc
# Procedure, shortened: as §1
# [15] = target: Gal(b1-4)GlcNAc(b1-2)[Gal(b1-4)GlcNAc(b1-4)]Man(a1-3)[GlcNAc(b1-4)][Gal(b1-4)GlcNAc(b1-2)[Gal(b1-4)GlcNAc(b1-6)]Man(a1-6)]Man(b1-4)GlcNAc(b1-4)GlcNAc
# Procedure, shortened: as §1
# [16] = target: Gal(b1-4)GlcNAc(b1-2)[Gal(b1-4)GlcNAc(b1-4)]Man(a1-3)[GlcNAc(b1-4)][Gal(b1-4)GlcNAc(b1-2)[Gal(b1-4)GlcNAc(b1-6)]Man(a1-6)]Man(b1-4)GlcNAc(b1-4)[Fuc(a1-6)]GlcNAc
# Procedure, shortened: as §1
# [17] = target: Gal(b1-4)GlcNAc(b1-2)[Gal(b1-4)GlcNAc(b1-6)]Man(a1-6)[Gal(b1-4)GlcNAc(b1-2)Man(a1-3)]Man(b1-4)GlcNAc(b1-4)GlcNAc
# Procedure, shortened: as §1
# [18] = target: Gal(b1-4)GlcNAc(b1-2)[Gal(b1-4)GlcNAc(b1-6)]Man(a1-6)[Gal(b1-4)GlcNAc(b1-2)Man(a1-3)]Man(b1-4)GlcNAc(b1-4)[Fuc(a1-6)]GlcNAc
# Procedure, shortened: as §1
# [19] = target: Gal(b1-4)GlcNAc(b1-2)[Gal(b1-4)GlcNAc(b1-6)]Man(a1-6)[GlcNAc(b1-4)][Gal(b1-4)GlcNAc(b1-2)Man(a1-3)]Man(b1-4)GlcNAc(b1-4)GlcNAc
# Procedure, shortened: as §1
# [20] = target: Gal(b1-4)GlcNAc(b1-3)Gal(b1-3)GlcNAc
# Procedure, shortened: as §1
# [21] = target: Gal(b1-4)GlcNAc(b1-3)Gal(b1-4)Glc
# Procedure, shortened: as §1
# [22] = target: Gal(b1-4)GlcNAc(b1-3)Gal(b1-4)GlcNAc
# Procedure, shortened: as §1
# [23] = target: Gal(b1-4)GlcNAc(b1-3)Gal(b1-4)GlcNAc(b1-3)Gal(b1-4)GlcNAc
# Procedure, shortened: as §1
# [24] = target: Gal(b1-4)GlcNAc(b1-3)Gal(b1-4)[Fuc(a1-3)GlcNAc(b1-6)]Gal(b1-4)Glc
# Procedure, shortened: as §1
# [25] = target: Gal(b1-4)GlcNAc(b1-3)Gal(b1-4)[Fuc(a1-3)]GlcNAc(b1-3)Gal(b1-4)[Fuc(a1-3)]GlcNAc
# Procedure, shortened: as §1
# [26] = target: Gal(b1-4)GlcNAc(b1-3)GalNAc
# Procedure, shortened: as §1
# [27] = target: Gal(b1-4)GlcNAc(b1-3)[Gal(b1-4)GlcNAc(b1-6)]Gal(b1-4)GlcNAc
# Procedure, shortened: as §1
# [28] = target: Gal(b1-4)GlcNAc(b1-3)[Gal(b1-4)GlcNAc(b1-6)]GalNAc
# Procedure, shortened: as §1
# [29] = target: Gal(b1-4)GlcNAc(b1-3)[GlcNAc(b1-6)]Gal(b1-4)GlcNAc
# Procedure, shortened: as §1
# [30] = target: Gal(b1-4)GlcNAc(b1-6)Gal(b1-4)GlcNAc
# Procedure, shortened: as §1
# [31] = target: Gal(b1-4)GlcNAc(b1-6)Gal(b1-4)GlcNAc(b1-6)GalNAc
# Procedure, shortened: as §1
# [32] = target: Gal(b1-4)GlcNAc(b1-6)GalNAc
# Procedure, shortened: as §1
# [33] = target: Gal(b1-4)GlcNAc(b1-6)[Gal(b1-3)]GalNAc
# Procedure, shortened: as §1
binder,measurement,setting,value
"Gal 8 (Homo sapiens), O00214_1 (protein) MMLSLNNLQNIIYNPVIPFVGTIPDQLDPGTLIVIRGHVPSDADRFQVDLQNGSSMKPRADVAFHFNPRFKRAGCIVCNTLINEKWGREEITYDTPFKREKSFEIVIMVLKDKFQVAVNGKHTLLYGHRIGPEKIDTLGIYGKVNIHSIGFSFSSDLQSTQASSLELTEISRENVPKSGTPQLRLPFAARLNTPMGPGRTVVVKGEVNANAKSFNVDLLAGKSKDIALHLNPRLNIKAFVRNSFLQESWGEEERNITSFPFSPGMYFEMIIYCDVREFKVAVNGVHSLEYKHRFKELSSIDTLEINGDIHLLEVRSW",glycan array binding signal (z-score),[1],-0.231
same,glycan array binding signal (z-score),Gal(b1-4)Glc,-0.238
same,glycan array binding signal (z-score),Gal(b1-4)Glc6S,-0.209
same,glycan array binding signal (z-score),Gal(b1-4)GlcNAc,-0.219
same,glycan array binding signal (z-score),[2],-0.226
same,glycan array binding signal (z-score),Gal(b1-4)GlcNAc(b1-2)Man,-0.163
same,glycan array binding signal (z-score),[3],-0.202
same,glycan array binding signal (z-score),[4],-0.278
same,glycan array binding signal (z-score),[5],-0.211
same,glycan array binding signal (z-score),[6],-0.238
same,glycan array binding signal (z-score),[7],-0.191
same,glycan array binding signal (z-score),[8],0.003
same,glycan array binding signal (z-score),[9],-0.185
same,glycan array binding signal (z-score),[10],-0.23
same,glycan array binding signal (z-score),[11],-0.25
same,glycan array binding signal (z-score),[12],-0.184
same,glycan array binding signal (z-score),[13],0.323
same,glycan array binding signal (z-score),[14],0.171
same,glycan array binding signal (z-score),[15],-0.175
same,glycan array binding signal (z-score),[16],-0.19
same,glycan array binding signal (z-score),[17],-0.172
same,glycan array binding signal (z-score),[18],0.021
same,glycan array binding signal (z-score),[19],-0.251
same,glycan array binding signal (z-score),[20],1.38
same,glycan array binding signal (z-score),[21],2.32
same,glycan array binding signal (z-score),[22],0.79
same,glycan array binding signal (z-score),[23],0.614
same,glycan array binding signal (z-score),[24],-0.3
same,glycan array binding signal (z-score),[25],-0.194
same,glycan array binding signal (z-score),[26],-0.231
same,glycan array binding signal (z-score),[27],-0.182
same,glycan array binding signal (z-score),[28],-0.238
same,glycan array binding signal (z-score),[29],-0.239
same,glycan array binding signal (z-score),[30],-0.256
same,glycan array binding signal (z-score),[31],0.004
same,glycan array binding signal (z-score),[32],-0.191
same,glycan array binding signal (z-score),[33],-0.212
